Laboratory results taken from article PMC9282853.
Substitutions are numbered along the chain they refer to. These are yes or no findings as the source states them, for the method shown. In cells and extracts the contact can be indirect. Some results given as binding are weak or reduced against the parent protein; the word gives no strength. For some of these results: Where a sequence is shown, tags or fusion partners need not be part of it.

Tests used:
[1] = target: T1, HA-tagged Samd14-Ckip1 CPI chimeric protein (mouse | not stated) (UniProt Q8K070+Q9JIY0); test: co-IP; anti-HA agarose beads on lysates (1% NP-40 lysis buffer) of GFP-sorted G1E-ΔEnh cells expressing HA-tagged Samd14 constructs or empty vector; Western blot for Capzβ, Capzα1, Capzα2
T1 sequence: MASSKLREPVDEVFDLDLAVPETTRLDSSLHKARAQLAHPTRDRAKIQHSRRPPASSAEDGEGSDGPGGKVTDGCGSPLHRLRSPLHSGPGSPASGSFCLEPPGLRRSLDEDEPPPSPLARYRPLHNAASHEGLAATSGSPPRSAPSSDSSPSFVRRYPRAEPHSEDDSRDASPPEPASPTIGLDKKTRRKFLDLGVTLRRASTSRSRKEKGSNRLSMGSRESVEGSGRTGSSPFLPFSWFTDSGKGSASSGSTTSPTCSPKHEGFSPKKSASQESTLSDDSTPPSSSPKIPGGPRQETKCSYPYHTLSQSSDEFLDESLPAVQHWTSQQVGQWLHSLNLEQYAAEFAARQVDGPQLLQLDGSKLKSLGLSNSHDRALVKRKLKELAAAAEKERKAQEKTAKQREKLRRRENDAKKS

[2] = target: T2, HA-tagged full-length Samd14 (sterile alpha motif domain-containing protein 14) (mouse) (UniProt Q8K070); test: as above
T2 sequence: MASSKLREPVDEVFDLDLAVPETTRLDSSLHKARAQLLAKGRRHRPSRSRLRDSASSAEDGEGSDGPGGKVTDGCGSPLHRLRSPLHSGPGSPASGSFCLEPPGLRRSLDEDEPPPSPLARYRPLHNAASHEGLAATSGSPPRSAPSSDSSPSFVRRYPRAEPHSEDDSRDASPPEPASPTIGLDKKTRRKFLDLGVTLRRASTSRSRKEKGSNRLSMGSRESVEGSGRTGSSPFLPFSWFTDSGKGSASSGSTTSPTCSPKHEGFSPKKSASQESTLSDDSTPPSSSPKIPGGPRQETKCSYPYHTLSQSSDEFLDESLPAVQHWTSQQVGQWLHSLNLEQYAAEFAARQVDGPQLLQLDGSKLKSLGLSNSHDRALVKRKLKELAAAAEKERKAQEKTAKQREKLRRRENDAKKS

[3] = target: T3, HA-tagged Samd14-∆114–124 (mouse) (UniProt Q8K070); test: as above
T3 sequence: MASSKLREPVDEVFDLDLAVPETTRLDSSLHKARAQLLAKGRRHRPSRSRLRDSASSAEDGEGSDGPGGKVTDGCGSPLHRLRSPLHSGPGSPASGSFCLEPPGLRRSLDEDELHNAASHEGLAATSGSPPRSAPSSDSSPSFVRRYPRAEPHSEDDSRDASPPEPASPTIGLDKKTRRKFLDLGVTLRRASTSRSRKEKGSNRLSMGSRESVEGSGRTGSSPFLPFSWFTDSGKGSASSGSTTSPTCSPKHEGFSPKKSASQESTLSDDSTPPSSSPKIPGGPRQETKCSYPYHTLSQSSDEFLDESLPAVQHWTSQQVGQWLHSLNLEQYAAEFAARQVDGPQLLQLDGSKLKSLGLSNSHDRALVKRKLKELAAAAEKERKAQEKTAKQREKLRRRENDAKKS

[4] = target: T4, HA-tagged Samd14-R43/45 A (mouse) (UniProt Q8K070); test: as above
T4 sequence: T2 sequence with R43A, R45A

[5] = target: T5, HA-tagged Samd14-∆38–54 (Samd14 lacking the capping protein binding domain) (mouse) (UniProt Q8K070); test: as above
T5 sequence: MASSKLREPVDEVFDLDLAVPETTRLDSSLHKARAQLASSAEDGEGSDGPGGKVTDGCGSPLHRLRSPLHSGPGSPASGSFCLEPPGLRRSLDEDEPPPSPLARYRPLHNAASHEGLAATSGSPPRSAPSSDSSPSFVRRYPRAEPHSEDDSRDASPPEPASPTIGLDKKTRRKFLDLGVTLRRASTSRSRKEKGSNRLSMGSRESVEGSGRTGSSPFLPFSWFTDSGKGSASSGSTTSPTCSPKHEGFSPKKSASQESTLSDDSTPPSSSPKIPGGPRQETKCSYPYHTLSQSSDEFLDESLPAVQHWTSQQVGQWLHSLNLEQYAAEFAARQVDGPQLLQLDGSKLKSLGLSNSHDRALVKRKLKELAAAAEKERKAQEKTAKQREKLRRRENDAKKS

[6] = target: T6, HA-tagged Samd14-∆170–180 (mouse) (UniProt Q8K070); test: as above
T6 sequence: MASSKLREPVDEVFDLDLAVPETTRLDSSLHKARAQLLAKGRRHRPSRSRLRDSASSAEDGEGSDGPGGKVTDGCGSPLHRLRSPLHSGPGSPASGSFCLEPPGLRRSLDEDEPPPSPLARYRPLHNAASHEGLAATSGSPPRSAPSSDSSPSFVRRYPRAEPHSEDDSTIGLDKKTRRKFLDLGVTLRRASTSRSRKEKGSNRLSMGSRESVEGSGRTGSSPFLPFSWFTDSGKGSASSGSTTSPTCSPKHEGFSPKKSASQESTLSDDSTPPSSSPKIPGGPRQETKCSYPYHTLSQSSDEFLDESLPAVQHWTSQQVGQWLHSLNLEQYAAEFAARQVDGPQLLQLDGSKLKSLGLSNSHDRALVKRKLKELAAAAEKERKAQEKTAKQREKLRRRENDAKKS

[7] = target: T7, HA-tagged Samd14-∆272–295 (mouse) (UniProt Q8K070); test: as above
T7 sequence: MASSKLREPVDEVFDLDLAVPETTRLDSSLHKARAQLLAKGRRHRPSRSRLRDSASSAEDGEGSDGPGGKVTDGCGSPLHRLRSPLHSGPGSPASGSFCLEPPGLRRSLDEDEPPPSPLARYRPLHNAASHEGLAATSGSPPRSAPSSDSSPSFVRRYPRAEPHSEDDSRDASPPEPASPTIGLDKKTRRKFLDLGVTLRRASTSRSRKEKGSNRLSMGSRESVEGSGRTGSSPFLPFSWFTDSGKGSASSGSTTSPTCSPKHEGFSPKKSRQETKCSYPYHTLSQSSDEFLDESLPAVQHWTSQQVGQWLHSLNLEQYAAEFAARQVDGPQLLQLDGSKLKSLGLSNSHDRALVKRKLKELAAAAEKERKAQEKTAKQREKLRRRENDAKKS

[8] = target: T8, Samd14, endogenous in wild type G1E cells (mouse (endogenous in G1E)) (UniProt Q8K070); test: co-IP; endogenous Samd14 precipitated from WT G1E cell lysate (1% NP-40 lysis buffer) with anti-Samd14 antibody or rabbit IgG control and Protein A beads; Western blot
T8 sequence: T2 sequence

[9] = target: T9, Samd14, endogenous in lineage-depleted mouse spleen cells (mouse (endogenous in spleen cells)) (UniProt Q8K070); test: co-IP; endogenous Samd14 precipitated with anti-Samd14 antibody or rabbit IgG control from Lin- WT spleen lysates of PHZ-treated mice; also PBS control mice, sorted CD71+Ter119- and CD71+Ter119+ cells, and +/- SCF (10 ng/ml, 5 min); Western blot for Capzβ
T9 sequence: T2 sequence

Measured: binding

Capzα2 (F-actin capping protein α2 subunit), endogenous in G1E cells (from UniProt P47754 1-286)
no binding: [1] | [5]
not listed: [8] | [9]
binds: all other assays above

Capzβ (F-actin capping protein β subunit), endogenous in G1E cells (from UniProt P47757 1-277)
no binding: [1] | [5]
not listed: [9]
binds: all other assays above

Capzβ, endogenous in lineage-depleted mouse spleen cells (from UniProt P47757 1-277)
binds: [9]
